From the supplement of paper PMC6531468 come the findings set out here.

The list shows a part of the results. Read counts after selection give these values, which scatter widely. Each score is taken over the longer molecules that contain the sequence shown.

Sequence of IMP3 KH1-4 (chain, as listed by the source): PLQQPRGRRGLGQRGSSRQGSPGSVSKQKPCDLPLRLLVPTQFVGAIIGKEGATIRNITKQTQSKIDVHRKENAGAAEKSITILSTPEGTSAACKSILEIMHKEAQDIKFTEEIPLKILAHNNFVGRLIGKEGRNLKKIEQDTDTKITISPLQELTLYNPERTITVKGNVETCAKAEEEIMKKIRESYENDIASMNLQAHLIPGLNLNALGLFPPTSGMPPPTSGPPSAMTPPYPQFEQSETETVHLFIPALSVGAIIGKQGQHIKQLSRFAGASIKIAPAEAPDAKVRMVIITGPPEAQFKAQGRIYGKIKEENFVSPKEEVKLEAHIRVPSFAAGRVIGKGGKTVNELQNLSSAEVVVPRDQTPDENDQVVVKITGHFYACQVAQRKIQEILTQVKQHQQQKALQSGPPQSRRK
Sequence of UniProt O00425 (O00425 whole entry): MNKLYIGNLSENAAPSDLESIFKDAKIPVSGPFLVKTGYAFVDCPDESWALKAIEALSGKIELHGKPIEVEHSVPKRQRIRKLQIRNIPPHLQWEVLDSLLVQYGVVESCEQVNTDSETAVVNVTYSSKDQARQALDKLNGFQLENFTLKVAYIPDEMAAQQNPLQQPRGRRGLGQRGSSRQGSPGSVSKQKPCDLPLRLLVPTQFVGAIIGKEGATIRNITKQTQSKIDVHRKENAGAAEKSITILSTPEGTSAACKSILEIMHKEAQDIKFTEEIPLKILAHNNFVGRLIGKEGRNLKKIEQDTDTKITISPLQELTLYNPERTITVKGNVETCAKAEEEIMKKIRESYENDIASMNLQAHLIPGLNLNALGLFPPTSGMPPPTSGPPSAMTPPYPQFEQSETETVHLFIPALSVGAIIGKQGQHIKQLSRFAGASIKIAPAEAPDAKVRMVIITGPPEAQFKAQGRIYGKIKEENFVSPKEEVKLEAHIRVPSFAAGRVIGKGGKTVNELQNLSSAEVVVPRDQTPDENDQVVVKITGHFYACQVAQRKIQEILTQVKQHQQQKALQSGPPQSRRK

One assay deals with IMP3 KH1-4. Put plainly: 6-mer SELEX enrichment z-score vs GST control; IMP3 is the RNA-binding protein IGF2BP3; higher = more enriched by binding. The note with it: construct: KH1-4 (164-579); SELEX round: R4. How it is done:
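SELEX-seq with GST-tagged IMP3 KH1-4 (Pro164-Lys579) and an N40 RNA pool, round 4. 6-mer z-score of sequence-tag enrichment normalised to the corresponding GST SELEX round; RNA k-mers written as DNA (T for U).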
Turning to AACACT, the “6-mer SELEX enrichment z-score” value turned out to be 0.91.

As to GCACCG, the “6-mer SELEX enrichment z-score” value worked out at 0.298.

Regarding TATTAT, the “6-mer SELEX enrichment z-score” value was 1.3.

Consider TACCAA, for which the “6-mer SELEX enrichment z-score” value was -1.

Regarding CCATAG, the “6-mer SELEX enrichment z-score” value was 0.178.

Take ATGTAA: the “6-mer SELEX enrichment z-score” value amounted to 0.953.

TTCCAT: the “6-mer SELEX enrichment z-score” value was determined as 1.22.

On to ACTTTT, for which the “6-mer SELEX enrichment z-score” value is 1.01.

On to AAAATT, for which the “6-mer SELEX enrichment z-score” value stood at 0.543.

In the case of ACCAGT, the “6-mer SELEX enrichment z-score” value worked out at 0.224.

For the sequence TCTGAT, the “6-mer SELEX enrichment z-score” value stood at 0.479.

Turning to TTCACA, the “6-mer SELEX enrichment z-score” value worked out at 1.81.

For CTATAC, the “6-mer SELEX enrichment z-score” value is 0.846.

As to GGTTTG, the “6-mer SELEX enrichment z-score” value was 0.011.

For the sequence AGCGGA, the “6-mer SELEX enrichment z-score” value is -1.07.

On to TGCAGG, for which the “6-mer SELEX enrichment z-score” value came to 1.07.

In the case of ATTCTG, the “6-mer SELEX enrichment z-score” value amounted to 0.599.

Turning to CCAAAC, the “6-mer SELEX enrichment z-score” value is -2.51.

With GTGTCG, the “6-mer SELEX enrichment z-score” value was -0.377.

With GAGAAG, the “6-mer SELEX enrichment z-score” value is 0.495.

For TTTGTG, the “6-mer SELEX enrichment z-score” value was determined as 0.096.

As for ATCTTG, the “6-mer SELEX enrichment z-score” value was -0.562.

Turning to GTAGCT, the “6-mer SELEX enrichment z-score” value is -0.741.

On to CACTAG, for which the “6-mer SELEX enrichment z-score” value is 0.285.

Consider GGTGAC, for which the “6-mer SELEX enrichment z-score” value was -0.261.

As for GCCAGC, the “6-mer SELEX enrichment z-score” value is 0.084.

In the case of CTAATC, the “6-mer SELEX enrichment z-score” value worked out at 0.061.

On to TCCTTG, for which the “6-mer SELEX enrichment z-score” value was -0.148.

On to ACCGGT, for which the “6-mer SELEX enrichment z-score” value was -0.291.

On to GAATGG, for which the “6-mer SELEX enrichment z-score” value is 0.737.

Regarding ATTGGG, the “6-mer SELEX enrichment z-score” value was -0.088.

CCGACT: the “6-mer SELEX enrichment z-score” value is -1.22.

TCGGGT: the “6-mer SELEX enrichment z-score” value was -0.342.

As to TGCACT, the “6-mer SELEX enrichment z-score” value was found to be 0.683.

For GAAAAA, the “6-mer SELEX enrichment z-score” value was -0.948.

Take AGGGTG: the “6-mer SELEX enrichment z-score” value came out at 0.09.

As to ACCCAT, the “6-mer SELEX enrichment z-score” value is -0.817.

Consider CAAACC, for which the “6-mer SELEX enrichment z-score” value was -1.94.

As to CGTACG, the “6-mer SELEX enrichment z-score” value is -1.48.

A further assay deals with IMP3 full-length (UniProt O00425). The description is as above. The note with it: construct: FL IMP3 (1-579); SELEX round: R4. The procedure:
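SELEX-seq with GST-tagged full-length IMP3 and an N40 RNA pool, round 4. Each 6-mer is scored as an enrichment z-score of sequence tags containing it, normalised to the matching GST SELEX round. RNA written as DNA (T = U).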
With AACACT, the “6-mer SELEX enrichment z-score” value is 0.51.

In the case of GCACCG, the “6-mer SELEX enrichment z-score” value was found to be 1.07.

Turning to TATTAT, the “6-mer SELEX enrichment z-score” value was 0.263.

For the sequence TACCAA, the “6-mer SELEX enrichment z-score” value was -1.11.

In the case of CCATAG, the “6-mer SELEX enrichment z-score” value came to 0.284.

As to ATGTAA, the “6-mer SELEX enrichment z-score” value was -0.255.

As for TTCCAT, the “6-mer SELEX enrichment z-score” value is 0.52.

Turning to ACTTTT, the “6-mer SELEX enrichment z-score” value was determined as 0.089.

For AAAATT, the “6-mer SELEX enrichment z-score” value was -0.962.

For the sequence ACCAGT, the “6-mer SELEX enrichment z-score” value worked out at 0.192.

Consider TCTGAT, for which the “6-mer SELEX enrichment z-score” value turned out to be 0.229.

For the sequence TTCACA, the “6-mer SELEX enrichment z-score” value came out at 2.09.

With CTATAC, the “6-mer SELEX enrichment z-score” value is -0.084.

As for GGTTTG, the “6-mer SELEX enrichment z-score” value was 0.002.

For the sequence AGCGGA, the “6-mer SELEX enrichment z-score” value was -0.358.

Regarding TGCAGG, the “6-mer SELEX enrichment z-score” value was 0.747.

For ATTCTG, the “6-mer SELEX enrichment z-score” value stood at 0.244.

As for CCAAAC, the “6-mer SELEX enrichment z-score” value is -2.04.

GTGTCG: the “6-mer SELEX enrichment z-score” value was 0.124.

Take GAGAAG: the “6-mer SELEX enrichment z-score” value was -0.226.

As for TTTGTG, the “6-mer SELEX enrichment z-score” value was -0.263.

As for ATCTTG, the “6-mer SELEX enrichment z-score” value is -0.032.

As for GTAGCT, the “6-mer SELEX enrichment z-score” value is -0.432.

Turning to CACTAG, the “6-mer SELEX enrichment z-score” value amounted to 0.376.

Regarding GGTGAC, the “6-mer SELEX enrichment z-score” value came to 0.09.

On to GCCAGC, for which the “6-mer SELEX enrichment z-score” value was determined as 0.608.

In the case of CTAATC, the “6-mer SELEX enrichment z-score” value is -0.212.

On to TCCTTG, for which the “6-mer SELEX enrichment z-score” value was -0.222.

In the case of ACCGGT, the “6-mer SELEX enrichment z-score” value was -0.131.

As to GAATGG, the “6-mer SELEX enrichment z-score” value is -0.07.

For ATTGGG, the “6-mer SELEX enrichment z-score” value was 0.034.

As for CCGACT, the “6-mer SELEX enrichment z-score” value was -1.04.

Turning to TCGGGT, the “6-mer SELEX enrichment z-score” value came out at 0.219.

Take TGCACT: the “6-mer SELEX enrichment z-score” value amounted to 0.344.

Turning to GAAAAA, the “6-mer SELEX enrichment z-score” value is -3.07.

In the case of AGGGTG, the “6-mer SELEX enrichment z-score” value was 0.198.

Take ACCCAT: the “6-mer SELEX enrichment z-score” value was -0.526.

In the case of CAAACC, the “6-mer SELEX enrichment z-score” value was -1.54.

For CGTACG, the “6-mer SELEX enrichment z-score” value was -0.723.
